Source: the supplement of paper PMC10126150
Sequences with one replicate were seen in a single cluster, so their values are uncertain.

Test system: ATP
Test: switch fluorescence ratio, 500 uM ATP over buffer (Cy3 cluster intensity, sum of 5 cycles each) (fold (ratio)); higher = stronger signal-on switching upon ATP binding; sequences stand for … in TCGTCGGCAGCGTCAGATGTGTATAAGAGACAGTTTTTTTTTTTTTTTTTTTTTTTTT…TC
Conditions: aptamer strand: ATP DNA aptamer (quencher-CACCTGGGGGAGTATTGCGGAGGAAGG + anchor), 100 nM annealed; ATP concentration: 500 uM; one replicate
Outline: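 Switching-strand clusters labelled with Cy3 on a modified Illumina MiSeq flow-cell were annealed to 100 nM quencher-labelled ATP aptamer, imaged in selection buffer, and re-imaged after 15 min with 500 uM ATP at 22 °C. This was done over five cycles with NaOH stripping and re-annealing in between. The fluorescence ratio is summed target-cycle over summed buffer-cycle Cy3 intensity per cluster, averaged per switch-domain sequence, excluding clusters outside 100-1000 RFU.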
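Also: ATP exposure 15 min at 22 °C before imaging.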

| Sequence | switch fluorescence ratio |
| --- | --- |
| TTACCCCTCT | 1.08 |
| TTACCCGAGG | 1.04 |
| TTACCGACTT | 1.1 |
| TTACCGGGGA | 0.99 |
| TTACGAAGGT | 0.969 |
| TTACGACCGC | 1.21 |
| TTACGATATA | 1.05 |
| TTACGATGTT | 0.999 |
| TTACGGCATA | 2.08 |
| TTACGGCTGG | 1.02 |
| TTACGTACGA | 1.58 |
| TTACGTCGT | 0.983 |
| TTACTAACCG | 1.13 |
| TTACTAACT | 1.14 |
| TTACTCCGTG | 1.95 |
| TTACTGAAGT | 1.19 |
| TTACTGAGGC | 1.01 |
| TTACTGCAAA | 1.11 |
| TTACTGTTCC | 1.04 |
| TTACTTACAT | 1.32 |
| TTACTTAGAA | 0.959 |
| TTACTTGCAG | 0.984 |

| Sequence | switch fluorescence ratio |
| --- | --- |
| TTACTTGTT | 0.958 |
| TTACTTTGTA | 1.03 |
| TTAGAAAAC | 1.01 |
| TTAGAAAATG | 0.985 |
| TTAGAAAGTG | 0.979 |
| TTAGAAATTC | 1.18 |
| TTAGAACCTG | 1.05 |
| TTAGAATGC | 0.966 |
| TTAGAATTGA | 1.02 |
| TTAGACCCAT | 0.991 |
| TTAGACTGTA | 0.995 |
| TTAGAGTCA | 0.968 |
| TTAGATTTGA | 0.987 |
| TTAGCCCCGT | 0.989 |
| TTAGCCCTTC | 1.04 |
| TTAGCCTGGG | 1.01 |
| TTAGCCTTCG | 1.33 |
| TTAGCTACTT | 1.05 |
| TTAGGAAAG | 0.977 |
| TTAGGAACG | 1.04 |
| TTAGGAACGA | 1.05 |
| TTAGGCATAG | 0.98 |

| Sequence | switch fluorescence ratio |
| --- | --- |
| TTAGGCG | 0.976 |
| TTAGGCTGGA | 1.04 |
| TTAGGGTTT | 0.987 |
| TTAGTAACCA | 1.01 |
| TTAGTAAGA | 1.01 |
| TTAGTAGGGA | 0.975 |
| TTAGTCCAGT | 1.04 |
| TTAGTCTAGG | 1.05 |
| TTAGTTACAG | 1.01 |
| TTAGTTAGCG | 0.968 |
| TTAGTTGCCT | 0.971 |
| TTAGTTTCCT | 1.04 |
| TTAGTTTTAA | 0.982 |
| TTATAACGGC | 1.06 |
| TTATACCCGA | 1.07 |
| TTATACGGTG | 1.05 |
| TTATACGTTT | 1.14 |
| TTATAGTCCA | 1.01 |
| TTATAGTGCG | 1.12 |
| TTATAGTGTC | 0.955 |
| TTATATGCGG | 0.985 |
| TTATCACTTT | 1.02 |

| Sequence | switch fluorescence ratio |
| --- | --- |
| TTATCCCGTT | 1.05 |
| TTATCTAAAA | 0.991 |
| TTATCTCCTG | 1 |
| TTATCTTCGC | 1.1 |
| TTATGAAAAG | 0.976 |
| TTATGAAACA | 1.07 |
| TTATGAACT | 0.968 |
| TTATGAAT | 0.96 |
| TTATGAATT | 1.02 |
| TTATGACCGG | 0.939 |
| TTATGCCCGT | 0.969 |
| TTATGTCTGT | 1.01 |
| TTATGTCTTT | 0.977 |
| TTATTAACAT | 1.05 |
| TTATTCGCT | 1.02 |
| TTATTCTTGG | 0.999 |
| TTATTGTGAA | 1 |
| TTCAAACATA | 1.02 |
| TTCAAACCGA | 1.18 |
